In the supplement of paper PMC11417369:
The other results are listed elsewhere or left out.

These sequences were tested on PF3D7_0420300 AP2 domain 1 (GST-tagged) (assay: gcPBM binding intensity (ln(normalized median fluorescence intensity)); higher = stronger DNA binding).
Summary of the method: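 Each value is the highest Masliner-normalised natural-log median intensity across replicate spots of either orientation of a probe. The probes were primer-extended double-stranded 36-bp intergenic genomic sequences on an Agilent 4 × 180k array, alongside negative controls, exposed for 1 h to GST-tagged P. falciparum DNA-binding domains expressed in E. coli. Bound protein was picked up with Alexa488 anti-GST antibody and scanned at 488 nm.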

Sequence	gcPBM binding intensity (ln)
CTAAAAAAATAATAAAGTACACAAACGAATATATAA [XGTACX_site668]	9.77
ACATATGGCACATATGTACACACGTATAGATAATAT [CACACA_site2024]	9.56
TTTTTTTTTTTTTTTGCACACTATATTTAATATAAG [CACACA_site2444]	9.09
CTTTTTTGGTACATCACACATTTTTACATTCCCTTT [CACACA_site4957]	9.59
CCATATTTAATAAAATGTACTCATTCTTTTATTTTA [XGTACX_site7802]	9.16
TTAATAGTGGAAATATGTACATAATTTTGGTCTTTT [XGTACX_site1664]	9.25
CTGTTCAAAATATGAACACACACATATATATATATA [CACACA_site8638]	9.47
CTTTAAATGATGTAAACACACACATATACATTATTA [CACACA_site9035]	9.45
CACATAAAAAAATAAACACACATATGTATATAAATA [CACACA_site7483]	9.73
TAAAAAAAAATAAAAAGTACATATATATATATATAT [XGTACX_site1155]	9.14
AATGGAAAAATAGGCACACACACATAAATACAGATA [CACACA_site4844]	10.3
AATATGAAACAAGACGCACACATAAATAAATAAATA [CACACA_site326]	9.68
AGTGCTACTCATGATTGAATAGAGGAAAAGGCGGTG [GTGCAC_negctrl_site49]	9.24
TTTTTTATGTTCAATTGTACATATACATATATATAT [XGTACX_site6013]	9.31
TTCATATTTCATATATGTACTTATGTTCAATATAGT [XGTACX_site3811]	9.1
TAATTACACTTTAAAAGTACATATATAATAACATTA [XGTACX_site379]	9
CAAACAATTAAACAAACACACATATACATGTATATA [CACACA_site2060]	9.74
AAAATAAGCCATATACGTACATACATATATAAATAT [XGTACX_site4197]	9.48
ATAGGAAAAAGTATTGGTACACATACATATACGTTA [XGTACX_site5819]	9.5
TTATATGTTTTGTGTACACAATTTATTAAATTAATA [CACACA_site5645]	9.23
ACACAAAAAATTAAGTGTACTCATCAAGAAAAAAAA [XGTACX_site3456]	9.23
TATATATTTTTTTCATGTACATATAAATTAATTAAA [XGTACX_site8680]	9.04
ATAAAATACCCTGATCTATTACATATTATATTCTGC [GTGCAC_negctrl_site311]	9.18

Sequence	gcPBM binding intensity (ln)
GATTTAATAGATACGAGTACAGAAATTGTATACATA [XGTACX_site7563]	9.32
TACATATTTTTCTTTTCACACATGGAAAAAAAAGGT [CACACA_site5146]	9.11
ATATATATATATATATATATATATATATATAAGTGG [XGTACX_negctrl_site90]	9.08
TATTAATTCATTTTTTTTTTTTTTTTTTTTTTTTTT [CACACA_negctrl_site1215]	9.13
AATATATTTATTATAACACACACATATATATATTAT [CACACA_site8264]	9.81
TATTTTTTTTTTCACTGTACATACAACAACAAATAT [XGTACX_site8835]	9.15
CCCTTAATTTAAAACACACAAACAAATAAGTTAGTT [CACACA_site3793]	9.3
TAGCATGATTTGCCTTGTACACAACCGTTTTAATAA [XGTACX_site7911]	9.29
AAGTGTTCTTGTTATACACACACATATATATATATA [CACACA_site8251]	9.8
TATGATAAATATGGAGCACACACACCGAAACATACA [CACACA_site8031]	10
TAAATGAAAATATGTACACACTTGAAAATTTTTATG [CACACA_site5599]	9.34
TTTTGTATTTTTCACACACACATAAGTAAACAATAA [CACACA_site1899]	9.76
TATATTATATATATATGTACATATTATTATATCTAA [XGTACX_site3835]	8.96
TACAAGAACAAAAAATGTACGAAATAATTACAAATA [XGTACX_site5824]	9.35
AATCTTTTTAAATCTTGATTAATTTCGGGTATATAT [TGCATGCA_negctrl_site107]	9.23
AAACATATGGTATTTAAACACACAAAAAAGAAAGAA [CACACA_site8239]	9.85
ATGTTGTGGATATATACACACATACATATTTATATA [CACACA_site6857]	9.34
ATACAATAATATAAATGTACAAATTATATCTTCATT [XGTACX_site8994]	9.25
AAATTAAATATTATATTAATTCTTAAATTTTTTTTT [CACACA_negctrl_site439]	8.67
AAATTTAAAAATAAAGAACACACATATGTAAAATAT [CACACA_site9252]	9.7
AATTTCAATTTCTGTTGTACACTTTTTAATAGTAAA [XGTACX_site4085]	9.22
AAAAAAAAAAAAAAAACACACAAACATCAAATTACT [CACACA_site6950]	9.73
TATATACGCATGCGCACACACAAGTGGGAAATTTGG [CACACA_site1785]	9.52

Sequence	gcPBM binding intensity (ln)
TTATTATATAAATAAAAAAAAAAAAAAAAAAAAAAA [CACACA_negctrl_site1455]	8.28
ATATTTATATGAATCACACACAAAAAATATAGAGAT [CACACA_site7775]	9.88
ACTGTGGGAATAACCACACACACACCCACATATATA [CACACA_site3542]	10
CATAAATACAAATATACACACATATATATATATATA [CACACA_site2633]	9.61
AATATGTTTTTTAGATGTACAGATTAAATATTAAAA [XGTACX_site7308]	8.89
TTTTTTTCATATATATGTACATAATTATATATGCAT [XGTACX_site3257]	9.12
AAATAGTAAGAGATGGTGCGTTTCCTTTTTTTTTTT [GTGCAC_site9663]	9.42
TTTAAAAATATTTCACGTACGCATTTTAAAAAGTAT [XGTACX_site8026]	9.04
CGTGGGAGCAGACACACACACACACCCATATATATA [CACACA_site334]	10.1
TTAATTATATGGTAAACAAATAAATGTGAAAGGAAA [XGTACX_negctrl_site389]	9.39
TATTTATAAATATACGCACACATTAATATATATATA [CACACA_site3969]	9.42
AGTATGTAAATGTGCCATATATATATTAAATACATA [CACACA_negctrl_site14]	9.23
ATATTATTTATTTTTAAATTATATTGATTATTTTTT [CACACA_negctrl_site451]	9.12
GTTGGTAGGCGGTACGGTACACGTAGTATTTTTCTT [XGTACX_site4213]	9.39
TTGAAGTGTACTATTTTATATATATATATACATTTT [CACACA_negctrl_site224]	9.33
TAGAAATATATTTATTGTACATTGTATATATTATAT [XGTACX_site7584]	9.11
TAATGTTCCTATATAGTGCAATTATGTTTTATTTCT	9.48
TTTTAATTTTTAAGACGTACTATCATTTGATAATAA [XGTACX_site3942]	8.63
TACGATGTTTTAAAATGTACATAAAAGTCACATAAG [XGTACX_site3297]	9.09
TCTTTTTTTTTTACTAGTACTTAAAAAAAAAATATG [XGTACX_site4395]	8.99
ATTATGTGCCAATACACACACACATCTATATTTATA [CACACA_site6359]	10
TATAAATTTGTTCAATGTACATGTAAAGATATAATC [XGTACX_site371]	9.31
TTATTTTTTATAAAATGTACATATATTTTAAATATA [XGTACX_site4026]	8.98

Sequence	gcPBM binding intensity (ln)
TGAAGCAAAAACAAAACACACATATAAATAAATAAA [CACACA_site3925]	9.72
ACCAATCCAAAAGAATGTACCCATGTTTTAAAATAT [XGTACX_site2907]	9.29
TTTTGTTAACATATAGAAAAGAACAAAGTTAAAAAG [XGTACX_negctrl_site462]	9.2
TTCGTATGCATGAAATGTACATGATATTATTATAAA [XGTACX_site4542]	9.06
AATATGGGCATACATGTGCACTTTTTCCCGTGGTTT	9.4
ACGAAAAGATATATATGTACATATATTAAAAAAAAA [XGTACX_site1517]	9.18
TTAATTAAATATAGGGGTACATATTATATATGTTTT [XGTACX_site3677]	9.34
AAATATTTCTGCAAGGTGCACTTTATAAATCTTTGA	9.09
AAGAAATTTATTTATTGTACAATATATAATTTGTTT [XGTACX_site2478]	9.2
TTATATGCATATTTTTGTACACAACATTGTTGTATA [XGTACX_site8707]	9.25
ATGTATATTTTTATGTGTACGTAATAAAACATAATA [XGTACX_site7777]	9.2
TTATTTTTTTTTAGAGCACACATTTTTAATAAGGTA [CACACA_site2133]	9.09
TATATACTATATATATGTACACAAAATTATTTTGAA [XGTACX_site8232]	9.02
ATATGTAGTGTTATTTGTTCATTGTTTTAATTTTTA [CACACA_negctrl_site1394]	9.74
TAATTATATAAATACACACACATACACCCAAATAAA [CACACA_site5819]	10.1
GAAAAAAAAATACATACACACAATATATTTATTTAT [CACACA_site3124]	9.68
TATTATATATAATATTGTACATTAAAATATTAAAGA [XGTACX_site3698]	9
GGAACGTTCATATTTCCACACACAAAAAATAAATAT [CACACA_site9101]	9.62
TTTATTTTAAAATATAGTACGCAAATAAAAATAAAT [XGTACX_site7783]	9.21
ATATGTATTAAGTGTACACATATAATGGGTTTTCTT [CACACA_site5328]	9.42
